Among all 340,000 compounds or so, about 170 (0.05%) were called active. About 26% were inconclusive and are not listed. Calls follow the shape of the dose curve; as a rule, active = well fitted inhibition curve with a large enough effect in the signal ratio, with a control signal flat (not every such curve was filed as active); inconclusive = small, poorly fitted or top-dose-only effect, or effect the other way, or a change in a side signal; inactive = flat fitted curve, though single readings scatter; the % refers to the signal ratio. Only a part is listed here, and it is no random draw.
assay: qHTS Assay to Find Inhibitors of Chronic Active B-Cell Receptor Signaling; conditions: ABC-DLBCL IkBa-CBG/CBR reporter, luminescence ratio (green luciferase fused to IkBa over red control in TMD8 lymphoma cells), 4 h; series mostly up to 46.1 µM; activity change, negative = inhibition: at the top concentration;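 as to activity change, negative = inhibition: plate controls were basal doxycycline-induced cells for no effect and cells given 10 µM MG132 for full effect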
Excerpt: NIH Molecular Libraries Probe Production Network [MLPCN] NIH Chemical Genomics Center [NCGC] MLPCN Grant: 1 R03 DA031086-01A1 PI Name: Dr. R. Eric Davis NCGC Assay Overview: Diffuse large B-cell lymphoma (DLBCL) is the most common category of non-Hodgkin lymphoma, with ~20,000 new cases per year in the United States. DLBCL should be regarded as a collection of different neoplasms. Microarray gene expression analysis has defined two principal types of DLBCL, named for their similarity to normal B cell stages or activation states: a germinal center B-cell (GCB) type, and an activated B-cell (ABC) type. In ABC-DLBCL, a constitutive high-level activity of the NF-kappaB family of transcription factors has been observed (1) and NF-kappaB target genes are more highly expressed in ABC primary tumors than in GCB tumors. Functional studies have shown a constitutive high-level activity of the IkappaB (inhibitor of kappa-B) kinase (IKK) complex. […] Further analysis of DLBCL primary tumors for NF-kappaB target gene expression imply that although CARD11 is required for constitutive IKK activity in all ABC-DLBCL lines, mutations in CARD11 may be the root cause of IKK activation only in lines or tumors with such mutations. In other words, CARD11 mutations may explain NF-kappaB activation in only 10% of ABC-DLBCL cases. […] This process has been termed 'chronic active BCR signaling' (CABS). The goal of this screen is to find small-molecule inhibitors of the CABS pathway found in ABC-DLBCL lines using a cell-based assay that measures IkappaBalpa stability, which has already been extensively validated in the OCI-Ly3 line (PubChem AID:445; REF: 4). […] The assay uses green (CBG68) and red (CBR) emitting beetle luciferases [Chroma-GloTM developed by Promega Corp.] where the green luciferase is fused to IkappaBalpha and the red luciferase is present in its native state. Both luciferase genes are stably present in the TMD8 human ABC DLBCL cell line, but their expression is under the control of tetracycline-inducible promoters. Following the addition of doxycycline to induce expression of the luciferases, the green luminescence in control cultures rises only slowly because the CBG fusion partner IkappaBalpha is targeted by IKK activity for rapid degradation. In contrast, green luminescence rises rapidly in the presence of proteasome inhibitors or IKK inhibitors. The rise in red luminescence of CBR is not affected by proteasome or IKK inhibitors, and serves as normalization for cell number and nonspecific effects. Compounds were screened as a concentration-titration series that ranged from 46 uM to 3 nM.
NCGC Assay Protocol Summary: Cells were seeded in 1536-well plates at 5000 cells/4uL in IMDM medium containing 0.5% FBS, w/o phenol red, 1% penicillin/streptomycin. Then, 23 nL of compounds or DMSO were delivered to each well using a pin tool. One uL 20ng/ml doxycycline was then dispensed into white solid 1536-well plates and the plates were incubated at 37C/5% C02 in a cell incubator for 4 hrs. Then 4 uL luminescent substrate mix (in-house prepared: 150 mM Tris-Cl, pH 7.6, 3 mM MgCl2, 1% Triton X-100, 5 mM DTT, 0.2 mM CoA, 0.15 mM ATP, 5 mM D-luciferin, final concentrations) was added to each well. The plate was incubated at r.t. for 10-15 min. The plates were measured on a ViewLux plate reader for green luminescence (540/20 nm filter) and red luminescence (618/8 nm filter). The green and red luminescent signals were corrected for red and green luminescence filter overlap using previously determined filter calibration constants (determined using the procedure outlined in the Promega Technical Manual; REF 4). The %Activity was determined from the ratio of corrected green/red luminescent values. MG132 were used as control. […] Red luminescent %Activity was normalized to the difference between red luminesence in basal cells (0%Activity) and zero luminescence (-100% Activity). […]
Potency is read from the fitted curve at half-maximal effect.

Row | Compound | activity change, negative = inhibition | Potency
1 | O=C(O)C/C=C(/NC(=O)OCc1ccccc1)C(=O)OCc1ccccc1 | inactive: 7.24% | –
2 | CC1CC(Nc2ccccc2)c2ccccc2N1C(=O)c1cccnc1 (centres undefined) | inactive: -17.4% | –
3 | O=C(Oc1c(Cl)cc(Cl)c2cccnc12)c1cccc([N+](=O)[O-])c1 | – | active: 20.6 µM
4 | N#C/C(=C\c1cn(CC(=O)O)c2ccccc12)C(=O)NCc1ccccc1 | inactive: 1.99% | –
5 | COc1ccccc1[C@@]1(C)ON(c2ccccc2C(F)(F)F)C1=O | inactive: 1.11% | –
6 | CC(C)(C)OC(=O)C[C@@H]1C/C=C\C[C@@H](CC(=O)N[C@@H](CO)Cc2ccccc2)C(=O)N2CCC[C@H]2COC1=O | inactive: -1.12% | –
7 | CC(C)(C)[C@H]1C=C(C(=O)NC2CC2)O[C@@H](OCc2ccc(CO)cc2)C1 | inactive: 0.472% | –
8 | COC(C[C@H]1O[C@H]1[C@H](O)[C@H](C)OCc1ccccc1)OC | inactive: -1.07% | –
9 | O=C(c1ccccc1)c1ccccc1C(=O)c1ccccc1 | inactive: -6.61% | –
10 | Cc1ccc(NC(=O)C2CCN(S(=O)(=O)c3ccc4c(c3)CCCC(=O)N4)CC2)c(Br)c1 | inactive: 2.7% | –
11 | C[C@H](C(=O)O)c1n[nH]c(=O)c2ccccc12 | inactive: -0.501% | –
12 | Cc1ccccc1OCCn1cnc2c(N)ncnc21 | – | active: 18.4 µM
13 | Cc1ccc(/C=[N+](\[O-])c2ccc(N(C)C)cc2)c2nsnc12 | – | active: 10 µM
14 | CCOc1ccc(C2=Nn3c(nnc3-c3ccc(OC)cc3)SC2)cc1 | – | active: 12.6 µM
15 | C[C@]12C(=O)N(c3ccc(F)cc3)C(=O)N1[C@@H]1c3ccccc3OC[C@@H]1[C@H]2c1ccccc1 | inactive: -2.27% | –
16 | COC(=O)Cc1csc(N)n1 | inactive: -7.34% | –
17 | C[C@H](NC(=O)[C@@H]1Cc2ccccc2CN1)C(=O)Nc1ccc2c(c1)OCCO2 | inactive: 10.4% | –
18 | C[C@H](CO)N1C[C@H](C)[C@@H](CN(C)S(=O)(=O)c2ccccc2)Oc2c(NC(=O)Nc3ccc(C(F)(F)F)cc3)cccc2C1=O | inactive: -0.0005% | –
19 | O=C(O)c1cccnc1SCc1cccc(Cl)c1 | inactive: 0.555% | –
20 | Cc1cccc(CNc2ncnc3ccc(-c4ccccc4Cl)cc23)c1 | inactive: -8.17% | –
21 | C=CC[C@H](CC(=O)N[C@H](CO)Cc1ccccc1)C(=O)N[C@H](COC(=O)[C@@H](CC=C)CC(=O)OC(C)(C)C)Cc1c[nH]c2ccccc12 | inactive: 1.7% | –
22 | C=CCC[C@@H](Cc1ccc(F)cc1)C(=O)OCCNC(=O)[C@@H](CC=C)CC(=O)N[C@@H](CO)Cc1ccccc1 | inactive: -1.41% | –

Row | Compound | activity change, negative = inhibition | Potency
23 | C=CC[C@H](CC(=O)NCCO)C(=O)N[C@@H](COC(=O)[C@@H](CC=C)Cc1ccc(F)cc1)Cc1ccccc1 | inactive: -0.61% | –
24 | Cc1csc(=Nc2ccccc2)n1C | inactive: -1.74% | –
25 | C=CCOC(=O)C1=C[C@@H](c2coc3ccccc3c2=O)[C@H](CCCO)[C@@H](OCC)O1 | inactive: 1.51% | –
26 | COc1ccc(/C=C2\N=C3CCCCCN3C2=O)cc1 | inactive: -27.5% | –
27 | CC(C)CN(CCCNC(=O)CN1N=C(c2ccc(Cl)cc2)CCC1=O)CC(C)C | inactive: -1.33% | –
28 | COc1ccc(C(=O)NC(C(=O)NCCc2ccc3c(c2)OCCO3)C(C)C)cc1 (centres undefined) | inactive: -14.2% | –
29 | C=CCC[C@H](Cc1ccc(F)cc1)C(=O)OC[C@H](Cc1c[nH]c2ccccc12)NC(=O)[C@H](CC=C)CC(=O)N[C@H](CO)Cc1ccccc1 | inactive: 2.62% | –
30 | O=C1CCC(N2C(=O)c3ccccc3C2=O)C(=O)N1 (centres undefined) | inactive: -5.13% | –
31 | O=C1N[C@@H](Cc2c[nH]c3ccccc23)COC(=O)[C@@H](Cc2ccc(F)cc2)C/C=C\C[C@H]1CC(=O)N(CCO)Cc1ccccc1 | inactive: -2.73% | –
32 | O=C(C[C@@H]1C/C=C\CC[C@@H](Cc2ccc(F)cc2)C(=O)OC[C@@H]2CCCN2C1=O)N[C@H](CO)Cc1ccccc1 | inactive: -1.86% | –
33 | O=C(C[C@H]1C/C=C\CC[C@H](Cc2ccc(F)cc2)C(=O)OC[C@H]2CCCN2C1=O)N[C@H](CO)Cc1ccccc1 | inactive: -6.94% | –
34 | O=C1N=C(N2CCN(c3ccccc3)CC2)S/C1=C\c1ccco1 | inactive: 0.052% | –
35 | O=C(O)/C=C\C(=O)Nc1ccc(OC(F)F)cc1 | inactive: 8.13% | –
36 | CCOC(=O)[C@@H]1[C@H]2COc3cc(OC)ccc3[C@@H]2N2C(=O)N(c3cccc(F)c3)C(=O)[C@@]12C | inactive: -5.48% | –
37 | Oc1ccc(CNc2ccccc2F)c2cccnc12 | inactive: -8.12% | –
38 | C#Cc1ccc([C@@H]2C=C(C(=O)O)O[C@H](OCc3ccc(CO)cc3)C2)cc1 | inactive: -7.86% | –
39 | NC1=NC[C@H](Cc2ccc(O)cc2)N1CCc1cccc2ccccc12 | inactive: -3.05% | –
40 | COC(=O)CCCC[C@@H]1SC[C@@H](NC(=O)OC)[C@@H]1NC(=O)OC | inactive: -2.72% | –
41 | CCOC(=O)[C@@H]1[C@H]2COc3cc(OC)ccc3[C@H]2N2C(=O)N(c3ccc(Cl)cc3)C(=O)[C@]12C | inactive: -2.33% | –
42 | O=C(O)C1=C[C@@H](c2csc3ccccc23)C[C@@H](OCCCCO)O1 | inactive: -19.2% | –
43 | COCCN=C1N[C@@H](c2ccc(Br)cc2)C(C(=O)OC)=C(C)N1Cc1ccccc1 | inactive: 10% | –
44 | COc1ccc(C2=Nn3c(nnc3-c3ccccc3OC)SC2)cc1OC1CCOC1 (centres undefined) | – | active: 8.2 µM
